# Source: the supplement of paper PMC8728848
# This is one part of the list.
# B1: rCnSL-A (Clitocybe nebularis) (protein)
# chain: VNPNLPGPNDVFVGFRGTNNIVGAIYEKDGIKDTPLNNGADAEMGPGSYITDGLFTARIFASGSAGNNPGTTATVCKIYASGVQWRGAPKGYIPVAYFGNGPTAEQRRQTYLRTLGLPGTAIRFGNLNTNPGQGPTAPRQMVVPPGPLRSLLKASCFPAADTRLPQTLHYFEKRVDWNIITAADSQTWGH
# Assays:
# Assay in all cases: glycan array binding signal (z-score within array); higher = stronger binding
# Conditions in all cases: glycan notation: IUPAC condensed, linker removed
# [1] = target: Fuc(a1-2)Gal(b1-4)GlcNAc(b1-3)Gal(b1-4)GlcNAc(b1-3)Gal(b1-4)GlcNAc
# Outline: (§1)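 Glycan array data were curated from 3228 arrays in the Consortium for Functional Glycomics database and kept only where the protein sequence was available. Glycan names were converted to IUPAC-condensed notation, and columns mapping to the same glycan were averaged. The binding signal is a within-array Z-score, averaged across arrays of the same protein sequence at different concentrations or buffers and across linkers. Negative Z-scores can be read as non-binding.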
# [2] = target: Fuc(a1-2)Gal(b1-4)GlcNAc(b1-3)GalNAc
# Outline: as §1
# [3] = target: Fuc(a1-2)Gal(b1-4)GlcNAc(b1-3)[Fuc(a1-2)Gal(b1-4)GlcNAc(b1-6)]GalNAc
# Outline: as §1
# [4] = target: Fuc(a1-2)Gal(b1-4)GlcNAc(b1-3)[Fuc(a1-3)[Gal(b1-4)]GlcNAc(b1-6)]Gal(b1-4)Glc
# Outline: as §1
# [5] = target: Fuc(a1-2)Gal(b1-4)GlcNAc(b1-6)GalNAc
# Outline: as §1
# [6] = target: Fuc(a1-2)Gal(b1-4)GlcNAc6S
# Outline: as §1
# [7] = target: Fuc(a1-2)Gal(b1-4)[Fuc(a1-3)]GlcNAc
# Outline: as §1
# [8] = target: Fuc(a1-2)Gal(b1-4)[Fuc(a1-3)]GlcNAc(b1-2)Man(a1-3)[Fuc(a1-2)Gal(b1-4)[Fuc(a1-3)]GlcNAc(b1-2)Man(a1-6)]Man(b1-4)GlcNAc(b1-4)[Fuc(a1-6)]GlcNAc
# Outline: as §1
# [9] = target: Fuc(a1-2)Gal(b1-4)[Fuc(a1-3)]GlcNAc(b1-2)[Fuc(a1-2)Gal(b1-4)[Fuc(a1-3)]GlcNAc(b1-4)]Man(a1-3)[Fuc(a1-2)Gal(b1-4)[Fuc(a1-3)]GlcNAc(b1-2)Man(a1-6)]Man(b1-4)GlcNAc(b1-4)GlcNAc
# Outline: as §1
# [10] = target: Fuc(a1-2)Gal(b1-4)[Fuc(a1-3)]GlcNAc(b1-3)Gal(b1-4)[Fuc(a1-3)]GlcNAc
# Outline: as §1
# [11] = target: Fuc(a1-2)Gal(b1-4)[Fuc(a1-3)]GlcNAc(b1-3)Gal(b1-4)[Fuc(a1-3)]GlcNAc(b1-3)Gal(b1-4)[Fuc(a1-3)]GlcNAc
# Outline: as §1
# [12] = target: Fuc(a1-2)Gal(b1-4)[Fuc(a1-3)]GlcNAc(b1-3)GalNAc
# Outline: as §1
# [13] = target: Fuc(a1-2)Gal(b1-4)[Fuc(a1-3)]GlcNAc(b1-3)[Neu5Ac(a2-6)Gal(b1-4)GlcNAc(b1-6)]Gal(b1-4)Glc
# Outline: as §1
# [14] = target: Fuc(a1-2)Gal3S(b1-4)GlcNAc
# Outline: as §1
# [15] = target: Fuc(a1-2)Gal6S(b1-3)GlcNAc
# Outline: as §1
# [16] = target: Fuc(a1-2)Gal6S(b1-3)GlcNAc6S
# Outline: as §1
# Fuc(a1-2)Gal6S(b1-4)Glc = target: Fuc(a1-2)Gal6S(b1-4)Glc
# Outline: as §1
# [17] = target: Fuc(a1-2)Gal6S(b1-4)Glc6S
# Outline: as §1
# Fuc(a1-2)[Gal(a1-3)]Gal = target: Fuc(a1-2)[Gal(a1-3)]Gal
# Outline: as §1
# [18] = target: Fuc(a1-2)[Gal(a1-3)]Gal(b1-3)GalNAc
# Outline: as §1
# [19] = target: Fuc(a1-2)[Gal(a1-3)]Gal(b1-3)GalNAc(b1-3)Gal(a1-4)Gal(b1-4)Glc
# Outline: as §1
# [20] = target: Fuc(a1-2)[Gal(a1-3)]Gal(b1-3)GlcNAc
# Outline: as §1
# [21] = target: Fuc(a1-2)[Gal(a1-3)]Gal(b1-3)GlcNAc(b1-2)Man(a1-3)[Fuc(a1-2)[Gal(a1-3)]Gal(b1-3)GlcNAc(b1-2)Man(a1-6)]Man(b1-4)GlcNAc(b1-4)GlcNAc
# Outline: as §1
# [22] = target: Fuc(a1-2)[Gal(a1-3)]Gal(b1-3)GlcNAc(b1-2)Man(a1-3)[Fuc(a1-2)[Gal(a1-3)]Gal(b1-3)GlcNAc(b1-2)Man(a1-6)]Man(b1-4)GlcNAc(b1-4)[Fuc(a1-6)]GlcNAc
# Outline: as §1
# [23] = target: Fuc(a1-2)[Gal(a1-3)]Gal(b1-3)GlcNAc(b1-3)GalNAc
# Outline: as §1
# [24] = target: Fuc(a1-2)[Gal(a1-3)]Gal(b1-3)GlcNAc(b1-6)GalNAc
# Outline: as §1
# [25] = target: Fuc(a1-2)[Gal(a1-3)]Gal(b1-4)Glc
# Outline: as §1
# [26] = target: Fuc(a1-2)[Gal(a1-3)]Gal(b1-4)GlcNAc
# Outline: as §1
# [27] = target: Fuc(a1-2)[Gal(a1-3)]Gal(b1-4)GlcNAc(b1-2)Man
# Outline: as §1
# [28] = target: Fuc(a1-2)[Gal(a1-3)]Gal(b1-4)GlcNAc(b1-2)Man(a1-3)[Fuc(a1-2)[Gal(a1-3)]Gal(b1-4)GlcNAc(b1-2)Man(a1-6)]Man(b1-4)GlcNAc(b1-4)GlcNAc
# Outline: as §1
binder,measurement,setting,value
B1,glycan array binding signal (z-score),[1],-0.195
same,glycan array binding signal (z-score),[2],-0.207
same,glycan array binding signal (z-score),[3],-0.154
same,glycan array binding signal (z-score),[4],-0.295
same,glycan array binding signal (z-score),[5],-0.157
same,glycan array binding signal (z-score),[6],-0.251
same,glycan array binding signal (z-score),[7],-0.165
same,glycan array binding signal (z-score),[8],0.126
same,glycan array binding signal (z-score),[9],0.039
same,glycan array binding signal (z-score),[10],-0.285
same,glycan array binding signal (z-score),[11],-0.017
same,glycan array binding signal (z-score),[12],-0.01
same,glycan array binding signal (z-score),[13],-0.246
same,glycan array binding signal (z-score),[14],-0.22
same,glycan array binding signal (z-score),[15],-0.243
same,glycan array binding signal (z-score),[16],-0.048
same,glycan array binding signal (z-score),Fuc(a1-2)Gal6S(b1-4)Glc,-0.263
same,glycan array binding signal (z-score),[17],-0.179
same,glycan array binding signal (z-score),Fuc(a1-2)[Gal(a1-3)]Gal,-0.197
same,glycan array binding signal (z-score),[18],-0.193
same,glycan array binding signal (z-score),[19],-0.24
same,glycan array binding signal (z-score),[20],-0.141
same,glycan array binding signal (z-score),[21],-0.149
same,glycan array binding signal (z-score),[22],-0.018
same,glycan array binding signal (z-score),[23],-0.101
same,glycan array binding signal (z-score),[24],-0.234
same,glycan array binding signal (z-score),[25],-0.09
same,glycan array binding signal (z-score),[26],-0.235
same,glycan array binding signal (z-score),[27],-0.226
same,glycan array binding signal (z-score),[28],-0.265
